Test results: the supplement of paper PMC10126150
Values marked as one replicate rest on one cluster of the flow cell; about a third of the high ones do not repeat.

Each sequence was assayed on ATP (assay: switch fluorescence ratio, 500 uM ATP over buffer (Cy3 cluster intensity, sum of 5 cycles each) (fold (ratio)); higher = stronger signal-on switching upon ATP binding; sequences stand for … in TCGTCGGCAGCGTCAGATGTGTATAAGAGACAGTTTTTTTTTTTTTTTTTTTTTTTTT…TC). Conditions: aptamer strand: ATP DNA aptamer (quencher-CACCTGGGGGAGTATTGCGGAGGAAGG + anchor), 100 nM annealed; ATP concentration: 500 uM; one replicate.
Outline: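 Values give the fluorescence ratio for each switch-domain sequence, averaged from per-cluster ratios of summed target-cycle to summed buffer-cycle Cy3 intensity. The Cy3-labelled switching-strand clusters sat on a modified Illumina MiSeq flow-cell, were annealed to 100 nM quencher-labelled ATP aptamer, and were imaged in selection buffer, then after 15 min with 500 uM ATP at 22 °C. Five cycles ran with NaOH stripping and re-annealing between them, and clusters outside 100-1000 RFU were excluded.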
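Further: ATP exposure 15 min at 22 °C before imaging.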

| Sequence | switch fluorescence ratio |
| --- | --- |
| AATATTGGAG | 1.04 |
| CTCACAGCGT | 1.02 |
| ATATATACTT | 0.982 |
| GCAGGTGCCA | 1.26 |
| GGCGGTAGTA | 1.05 |
| AAAAAAAAG | 0.99 |
| GGGGGTTT | 0.962 |
| AAATTTTAGT | 1.02 |
| AGTGAGTTGA | 1.01 |
| GGAGCTTTTC | 1.27 |
| CGTCTACGC | 1.05 |
| CGTAAGGGCA | 1.04 |
| AATGTGCTAC | 1.11 |
| CACACGGCGG | 0.962 |
| TTTGGTAGTC | 1.01 |
| CGTTAGGCGT | 0.998 |
| ATTGTCTTTT | 1.01 |
| GAGCTTATA | 1.08 |
| ATTGTTCACC | 0.975 |
| AAGCAATAGG | 2.93 |
| TCTGAGGTTG | 1.02 |
| AGGGAATGGC | 1.06 |
| ATGCGCTTA | 1.02 |

| Sequence | switch fluorescence ratio |
| --- | --- |
| GCCATGTACG | 1.04 |
| GGCCTTCTGG | 0.881 |
| CTATAATAGT | 1.03 |
| GTGTTAGGA | 1 |
| TGAAACATAA | 0.999 |
| GCGGTAGGCT | 0.989 |
| CTGCGCCCGG | 1.04 |
| TATGATCCGA | 1 |
| CTTGTAAGCC | 1.02 |
| AGAACCGTGA | 1.05 |
| CAATAGCAAA | 1.28 |
| ATATTGTGTT | 0.985 |
| AAACGCGTGG | 1 |
| TTGGCCTGGT | 1.01 |
| GATACGTCTG | 1.08 |
| ATTCTTGTTA | 0.968 |
| GTTGTAAATT | 0.97 |
| TTCATTTATA | 1.08 |
| CGCAACTTTG | 1.1 |
| CGGAAACTAC | 1.42 |
| ATAACGACGC | 2.37 |
| CGGGATTGAC | 1.02 |
| GCGGCACTCG | 1.04 |

| Sequence | switch fluorescence ratio |
| --- | --- |
| GTAATACAGA | 1.04 |
| AACCGCTATG | 1.13 |
| ACAAGCTTCA | 1.34 |
| GGGGGAACAT | 1.07 |
| CATAACAGCG | 0.988 |
| ATCGGTCTGA | 1.01 |
| ATTTCGAGC | 1.03 |
| ATACATTGTA | 0.992 |
| GCGTTCTGTT | 0.992 |
| CACGCATCCG | 1.04 |
| CAGCGAAGG | 0.969 |
| ATGGGGTGA | 0.976 |
| TCATGCATGG | 1.04 |
| TAAGAATGTG | 0.974 |
| GCTGGCCGTA | 1.08 |
| TGCATAGGGC | 0.992 |
| GGGGGGCAA | 1.09 |
| GAGGCGGGCG | 1.08 |
| AAACTCATGC | 1.01 |
| GAAAAGGCAA | 2.06 |
| GGGACTTTTC | 1.02 |
| TCGCTGATTC | 1.35 |
| GACGAGTGGG | 1.07 |

| Sequence | switch fluorescence ratio |
| --- | --- |
| GGCAGAGATT | 0.966 |
| GGGTCTCGGC | 1.01 |
| AAAAAGAGTT | 1.03 |
| TGGCACCCTA | 1.03 |
| GGTTATGA | 0.977 |
| ATTTAGAAGA | 0.996 |
| TGAGTCACA | 1.04 |
| TTATGGATCA | 1.04 |
| CCACAATTGG | 1.02 |
| CCATTAAGA | 1.02 |
| TGCATTTACC | 1.14 |
| TAGAGTAACT | 1.01 |
| CGGGAACCAC | 1.02 |
| AATCACGCGG | 1.04 |
| TCGGCGACGA | 0.971 |
| GCTCATTGAG | 1.01 |
| TCAATACTT | 1.12 |
| AGACCAGTCT | 1.03 |
| AAAGAATGGA | 0.982 |
| TTGTAGGG | 0.995 |
| AGTCACGCGT | 1.03 |
| TCGGTCTCT | 1.04 |
| TGGCTTACT | 1.12 |

| Sequence | switch fluorescence ratio |
| --- | --- |
| ACGTCGTACT | 1.09 |
| TGGAGCGATG | 1.49 |
| TCATGCCGGT | 0.912 |
| ACGGCAGGCT | 0.961 |
| TGAGCCGATT | 1.05 |
| TTTTATGGTA | 0.982 |
| TGAGTTAGTA | 0.993 |
| TCGGGGGACG | 1.03 |
| CCTTTCGAGG | 1.2 |
| CTTTCAGTCT | 0.987 |
| CCGCGGAGCT | 1.18 |
| CTGACACGTA | 1.23 |
| GATACATGCA | 1.04 |
| AACGTGTCCT | 1.02 |
| GGCGTCATGA | 0.96 |
| AACTTCGAAA | 1.21 |
| TTAACGCTCC | 1.07 |
| ATTGATGTAA | 0.97 |
| ACAAGCTGCG | 1.01 |
| CTGGGCATTC | 2.15 |
| AGGCTAAGAG | 0.996 |
| TTAGGCCTAA | 0.966 |
| CGGATGTGGA | 1.06 |

| Sequence | switch fluorescence ratio |
| --- | --- |
| TGAGAGAGA | 0.99 |
| GGCGTACTTT | 1.07 |
| AAGCCATATT | 1 |
| GGAGCCAAGG | 1.01 |
| TAGAGAGTCA | 0.999 |
| AGCTTTTGAC | 1.06 |
| AGGCTGTCTG | 1.03 |
| AGTAATAGTA | 1.56 |
| TGATCGACCT | 1.22 |
| ACCAAGAGAA | 1.06 |
| TAGAGCTGTG | 0.974 |
| TTGTCCATGA | 0.991 |
| GCAAATGCGG | 1.01 |
| AACTGTGTGG | 0.962 |
| TCAAGGACTA | 1.03 |
| CCTTTATATT | 1.09 |
| GGAGGTGCTA | 1.03 |
| CCTAGAACGT | 0.938 |
| AATAATGTAC | 1.12 |
| CGGCAGTGTT | 1.04 |
| CGAGACGAAA | 0.994 |
| TCCATGCCT | 1.07 |
| CACAGGTATA | 0.991 |

| Sequence | switch fluorescence ratio |
| --- | --- |
| GTTCGACTGC | 1.07 |
| TACAGAGC | 0.977 |
| TAGCGACTAA | 1 |
| CAGACTTTTT | 1.13 |
| GGTAGATTAT | 0.961 |
| AACGATTGTT | 1 |
| CACGGTGCGA | 0.946 |
| CGACACAGAG | 1.07 |
| GATGGATCTT | 1.01 |
| CATGTTCCCG | 1 |
| TGGACGTAAC | 1.35 |
| ACAGGCAGAC | 1.26 |
| TACGACGTAA | 3.15 |
| TGGGGGCATC | 1.03 |
| AACTGGGGCT | 1.03 |
| TTCCTAGTGG | 0.989 |
| TTGTCAGTGG | 1.05 |
| TTCGGACGTC | 0.951 |
| CCTGCGACGG | 1.28 |
| CCAGGGAATA | 1.02 |
